Measurements reported in US20260209325A1, “SELECTIVE AND POTENT INHIBITORY ANTIBODIES OF MYOSTATIN ACTIVATION” (SCHOLAR ROCK, INC., priority 2022, published 2026).

Target: human pro-myostatin (Homo sapiens, UniProt O14793)
Experiment: Biacore 8k SPR binding affinity, human pro-myostatin
Text: The Biacore™ 8k SPR system was utilized to evaluate the binding affinity of myostatin antibodies to biotinylated human, murine, and cyno pro-myostatin. Biotin CAPture kit and sensor chips (Cytiva) were utilized in these experiments to immobilize the various antigens, followed by flowing a range of concentrations of each of the test antibodies.

Molecule	Ka	Kd (1/s)
Ab138: anti-pro/latent myostatin antibody; CDR sequences in Table 2d (antibody) heavy: EVQLVESGGGLVQPGGSLRLSCAASGFTFTSYGMSWVRQAPGKGLELVASITGSKGETYYPDSVKGRFTISRDNAKNSLYLQMNSLRAEDTAVYYCARDLLVRFLEWSHYYGMDVWGQGTTVTVSSASTKGPSVFPLAPCSRSTSESTAALGCLVKDYFPEPVTVSWNSGALTSGVHTFPAVLQSSGLYSLSSVVTVPSSSLGTKTYTCNVDHKPSNTKVDKRV[human IgG4 Fc with S228P (EU numbers) left out] light: DIVMTQSPLSLPVTPGEPASISCRSSQSLLHSSGHNFLHWYLQKPGQSPQLLIYETSNRAPGIPDRFSGSGSGTDFTLKISRVEAEDVGVYYCQQATQFPRPFGGGTKVEIKRTVAAPSVFIFPPSDEQLKSGTASVVCLLNNFYPREAKVQWKVDNALQSGNSQESVTEQDSKDSTYSLSSTLTLSKADYEKHKVYACEVTHQGLSSPVTKSFNRGEC	5.27e+06 M⁻¹ s⁻¹	0.000577 s⁻¹
Ab140: anti-pro/latent myostatin antibody; CDR sequences in Table 2d (antibody) heavy: EVQLVESGGGLVQPGGSLRLSCAASGFTFSSYGMSWVRQAPGKGLELVASFTGSGGTYYPDSVKGRFTISRDNAKNSLYLQMNSLRAEDTAVYYCARDNLIRFLEWSHYYGMDVWGQGTTVTVSSASTKGPSVFPLAPCSRSTSESTAALGCLVKDYFPEPVTVSWNSGALTSGVHTFPAVLQSSGLYSLSSVVTVPSSSLGTKTYTCNVDHKPSNTKVDKRV[human IgG4 Fc with S228P (EU numbers) left out] light: DIVMTQSPLSLPVTPGEPASISCRSSQSLLHSSGHNFLHWYLQKPGQSPQLLIYEVSNRESGVPDRFSGSGSGTDFTLKISRVEAEDVGVYYCQQQTQYPPTFGGGTKVEIKRTVAAPSVFIFPPSDEQLKSGTASVVCLLNNFYPREAKVQWKVDNALQSGNSQESVTEQDSKDSTYSLSSTLTLSKADYEKHKVYACEVTHQGLSSPVTKSFNRGEC	6.53e+06 M⁻¹ s⁻¹	0.000711 s⁻¹
Ab139: anti-pro/latent myostatin antibody; CDR sequences in Table 2d (antibody) heavy: EVQLVESGGGLVQPGGSLRLSCAASGFTFSSYGMSWVRQAPGKGLELVASFTGSGAAYYPDSVKGRFTISRDNAKNSLYLQMNSLRAEDTAVYYCARDLLIRFLEWSHYYGMDVWGQGTTVTVSSASTKGPSVFPLAPCSRSTSESTAALGCLVKDYFPEPVTVSWNSGALTSGVHTFPAVLQSSGLYSLSSVVTVPSSSLGTKTYTCNVDHKPSNTKVDKRV[human IgG4 Fc with S228P (EU numbers) left out] light: DIVMTQSPLSLPVTPGEPASISCRSSQSLLHSSGHNFLHWYLQKPGQSPQLLIYESSNRVSGVPDRFSGSGSGTDFTLKISRVEAEDVGVYYCQQQTQYPPTFGGGTKVEIKRTVAAPSVFIFPPSDEQLKSGTASVVCLLNNFYPREAKVQWKVDNALQSGNSQESVTEQDSKDSTYSLSSTLTLSKADYEKHKVYACEVTHQGLSSPVTKSFNRGEC	1.9e+07 M⁻¹ s⁻¹	0.0023 s⁻¹
